In PubChem BioAssay AID485313 (National Center for Advancing Translational Sciences (NCATS), 2010):
The whole screen tested about 320,000 compounds, of which about 7,600 (2.4%) were called active. Inconclusive means that the source gave no clear call. Such entries were picked first, then a sample of the others. Calls come from the whole dose curve; as a rule, active = well fitted activation curve with a large enough effect; inconclusive = small, poorly fitted or top-dose-only effect; inactive = no such curve, though single readings can be large or run the other way. A potency beside an inconclusive call is a rough fit, not a confirmed value.

experiment: qHTS Assay for NPC1 Promoter Activators; conditions: Huh7 NPC1 promoter luciferase reporter, 24 h; series mostly up to 9.22 µM; note: nearly all actives have a fitted effect of over 60% in size;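 for activation: reporter is driven by a mutant NPC1 promoter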
How it was run: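 Compounds in DMSO were transferred onto Huh7 NPC1-luciferase reporter cells pre-incubated 2 h; after 24 h at 37 °C, Amplite reagent was dispensed and luminescence recorded 10 min later.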
Potency is the fitted concentration of half-maximal effect; tags give direction and shape of the fitted curve.

Potency, active:
CN=c1scc(C)n1/N=C/c1ccc(O)cc1O 0.447 µM, O=c1[nH]cnc2cc(-c3ccc(Br)cc3)sc12 2.51 µM, O=C(c1cc(-c2ccc(Cl)c(Cl)c2)on1)N1CCCC1 3.55 µM, CN1CCN(c2ccc(NC(=O)c3ccc(-c4ccccc4F)o3)cc2)CC1 3.16 µM, O=C(Nc1ccc2c(c1)CCC2)Nc1ccccc1Cl 1.41 µM, CC(C)Cc1ccc(/C=C/C(=O)N2CCOCC2)cc1 2.82 µM, COc1ccc(N=Nc2cc(C)ccc2O)cc1 1.12 µM, CN(C)S(=O)(=O)c1ccc(C(=O)NCCOc2ccccc2)cc1 3.98 µM, O=C(Nc1nc2ccccc2[nH]1)c1ccccc1O 1.78 µM, O=C(Nc1ccc(F)cc1F)c1ccc2c(=O)n3c(nc2c1)CCC3 1.12 µM, CCC(=O)Nc1cccc(-c2ccc(N3CCCCC3)nn2)c1 0.562 µM

Potency, inconclusive:
C/C(=N/NC(=O)c1ccc(Br)s1)c1ccncc1 1.58 µM [activator, partial curve], CCN(CC)c1ccc(NC(=O)c2ccccc2F)cc1 0.794 µM [activator, partial curve], COc1cccc(C(=O)Nc2nc3c(s2)CN(C)CC3)c1 2.82 µM [activator, partial curve], CCCCCCCc1ccc(-c2ccc(O)cc2)nc1 3.55 µM [activator, single point], COc1cc(OC)cc(N(C(=O)CNC(=O)c2ccco2)C(C(=O)NCC2CCCO2)c2ccccc2)c1 (stereo not given) 5.62 µM [activator, single point], Cc1cc(N(CCO)CCO)ccc1N=Nc1cc(F)ccc1F 3.16 µM [activator, partial curve], O=C(Nc1nc(-c2ccccn2)cs1)C1CC1 2.24 µM [activator, partial curve], O=[N+]([O-])c1ccc(/C=C/c2ccncc2)cc1 3.55 µM [activator, partial curve], COc1cc(SC)ccc1C(=O)Nc1nc(C)cc(C)n1 3.16 µM [activator, partial curve], CC(C)COc1ccc(C(=O)Nc2ncn[nH]2)cc1 3.98 µM [activator, partial curve], COc1ccc(-n2nc(C(=O)NCC(=O)N3CCC(C)CC3)c3ccccc3c2=O)c(OC)c1 3.16 µM [activator, single point], O=C(Nc1ccc(Cl)cc1)Nc1ccc(Br)cn1 3.16 µM [activator, single point], CSc1ccccc1C(=O)Nc1ccc2c(c1)CCC2 3.55 µM [activator, single point], Cn1c(=O)n(CCOc2ccccc2Cl)c2ccccc21 2.82 µM [activator, partial curve], CCN(CC)c1nc(C)nc2c1cnn2CCc1ccccc1 3.16 µM [activator, partial curve], COc1ccc(Br)cc1-c1noc(-c2ccccc2F)n1 5.01 µM [activator, single point], Cc1ccc(N=c2oc3cc(O)ccc3cc2C(N)=O)cc1 5.62 µM [activator, single point], Cc1cccc(CSc2cn(CC(=O)N3CCOCC3)c3ccccc23)c1 3.16 µM [activator, single point], COc1ccc(/C=C2\SC(=O)N(CCC(=O)NC3CCS(=O)(=O)C3)C2=O)cc1 (stereo not given) 2.24 µM [activator, partial curve], O=C(Nc1ccc2c(c1)OCO2)c1ccc(COc2ccc3c(c2)CCC3)o1 3.16 µM [activator, partial curve], COc1cccc(S(=O)(=O)NCc2ccc(C(=O)NCc3ccccn3)cc2)c1 1.12 µM [activator, single point], Clc1ccccc1Nc1nc2ccccc2o1 0.708 µM [activator, partial curve], CCN=c1scc(-c2ccco2)n1/N=C/c1ccc(O)cc1 3.16 µM [activator, single point], CCOc1cccc(C(=O)Nc2ccc3c(c2)OCCO3)c1 3.98 µM [activator, single point], CCOc1ccc(OCc2ccc(C(=O)N(C)c3ccccc3)o2)cc1 6.31 µM [activator, single point], CC1CCCN(C(=O)CNC(=O)c2sc3ccccc3c2Cl)C1 (stereo not given) 4.47 µM [activator, partial curve], Cc1cc(NC(=O)c2ccc([N+](=O)[O-])cc2)no1 2.51 µM [activator, partial curve], O=C(/C=C/Nc1cccc(O)c1)c1ccccc1 3.98 µM [activator, single point], Cn1nc(C(F)(F)F)cc1-c1ccc(/C=C(\C#N)C(=O)c2cccc(C(F)(F)F)c2)s1 2.51 µM [activator, partial curve], COc1ccc(NC(=O)Nc2cccc(C(F)(F)F)c2)cn1 1.26 µM [activator, single point], CCOCCCNC(=O)c1ccc(Br)cc1 3.55 µM [activator, single point], CCc1ccc(NC(=S)N2CCCC2)cc1 2 µM [activator, partial curve], O=C(CN1CCCC1)Nc1ccc(-c2nc3cc(NC(=O)CN4CCCC4)ccc3o2)cc1 3.98 µM [activator, single point], Cc1cc(Cl)c2oc(C(=O)N(C)C3CCOC3)c(C)c2c1 (stereo not given) 5.62 µM [activator, single point], O=C1/C(=C/c2ccc(F)cc2)CCC1C1CCCC1 (stereo not given) 4.47 µM [activator, single point], COc1ccc(-n2ncc3c(NCc4ccccn4)ncnc32)cc1 3.98 µM [activator, partial curve], CSCc1ccc(C(=O)Nc2cccc(C)c2C)cc1 3.55 µM [activator, single point], COc1ccc(C(=O)NCC(O)CN2CCOCC2)cc1[N+](=O)[O-] (stereo not given) 5.62 µM [activator, single point], COc1cccc(C(=O)Nc2nnc(SCC(=O)NC3CCCC3)s2)c1 2.24 µM [activator, partial curve], Cc1cccn2cc(COc3ccc(-c4ccccc4)cc3)nc12 3.16 µM [activator, single point], Cc1ccc2cc(CCNC(=O)c3ccco3)c(=O)[nH]c2c1 3.55 µM [activator, single point], CCOc1ccccc1C(=O)Nc1cccc(-c2ccc(N3CCOCC3)nn2)c1 2.82 µM [activator, partial curve], COc1ccc(Cc2nc(-c3cccs3)no2)cc1 3.16 µM [activator, single point], O=C(CSc1nnc(-c2ccco2)o1)N1CCCCC1 2.24 µM [activator, partial curve], Cc1ccc(-c2csc(NC(=O)C3=COCCO3)n2)cc1 3.98 µM [activator, partial curve], O=C(Nc1ccc(Br)cc1)N1CCCCCC1 2.51 µM [activator, partial curve], CCc1ccc2oc(-c3ccc(OC)cc3)cc(=Nc3cccc(C(=O)O)c3)c2c1 3.55 µM [activator, single point]

Potency, inactive:
Cc1cc(C(=O)N2CCCC(C(=O)c3ccc(Cl)cc3C)C2)no1 (stereo not given), Cc1cc(=O)cc(C)n1-c1ccc(Cl)cc1, Cc1ccccc1N=Nc1c(O)n(C)c2ccccc12, COc1ccc(C2(NC(C)=O)CCN(Cc3cccnc3)CC2)cc1, CN1CCN(C(=O)CCCN2C(=O)/C(=C/c3ccc(Cl)cc3)SC2=S)CC1, CC(=O)c1cccc(NC(=O)C(C)OC(=O)CCN=C2NS(=O)(=O)c3ccccc32)c1 (stereo not given), COc1ccc(-c2cc(C(=O)N3CCCCCC3)c3ccccc3n2)cc1, CCCC1=Nc2cc(C(=O)N3CCC(C(=O)OCC)CC3)ccc2Sc2ccccc21, c1cncc(-c2nnc3sc(-c4ccco4)nn23)c1, Cc1cc(N2C(=O)[C@@H]3[C@H](C2=O)[C@@H]2C[C@H]3C(Br)C2Br)no1 (stereo not given in full), O=C(O)CSCC(=O)N1CCCN(c2ccc(C(F)(F)F)cn2)CC1, CCOc1cc(-c2cc(-c3ccc(C)cc3)nc(N)c2C#N)ccc1O, COc1cc(OC)c(C(=O)Nc2cccc3ccccc23)cc1OC, COc1ccc(OC)c(NC(=O)CCN2CCN(CCO)CC2)c1, Cc1ccc2oc(-c3ccc(NC(=O)c4ccncc4)cc3O)nc2c1, COc1ccc(CCNC(=O)Cn2cccc2C(=O)c2ccccc2)c(OC)c1, Nc1oc2ccccc2c1C(=O)Cc1ccccc1O[C@@H]1O[C@H](CO)[C@@H](O)[C@H](O)[C@H]1O
